Article PMC4336329 (PLoS ONE, 2015)
Among all 310,000 compounds or so, about 14,000 (4.5%) showed an effect of 50% or more. Effects have a minus sign here. This is one part of the list.

Each compound was assayed against human ether-à-go-go-related gene (hERG) potassium channel (human, UniProt Q12809) (assay: primary screen, population patch clamp on CHO cells stably expressing hERG).
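Note: peak tail current of the secondary pulse compared with the same well before compound.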

human ether-à-go-go-related gene (hERG) potassium channel, sequence (Q12809 whole entry, looked up): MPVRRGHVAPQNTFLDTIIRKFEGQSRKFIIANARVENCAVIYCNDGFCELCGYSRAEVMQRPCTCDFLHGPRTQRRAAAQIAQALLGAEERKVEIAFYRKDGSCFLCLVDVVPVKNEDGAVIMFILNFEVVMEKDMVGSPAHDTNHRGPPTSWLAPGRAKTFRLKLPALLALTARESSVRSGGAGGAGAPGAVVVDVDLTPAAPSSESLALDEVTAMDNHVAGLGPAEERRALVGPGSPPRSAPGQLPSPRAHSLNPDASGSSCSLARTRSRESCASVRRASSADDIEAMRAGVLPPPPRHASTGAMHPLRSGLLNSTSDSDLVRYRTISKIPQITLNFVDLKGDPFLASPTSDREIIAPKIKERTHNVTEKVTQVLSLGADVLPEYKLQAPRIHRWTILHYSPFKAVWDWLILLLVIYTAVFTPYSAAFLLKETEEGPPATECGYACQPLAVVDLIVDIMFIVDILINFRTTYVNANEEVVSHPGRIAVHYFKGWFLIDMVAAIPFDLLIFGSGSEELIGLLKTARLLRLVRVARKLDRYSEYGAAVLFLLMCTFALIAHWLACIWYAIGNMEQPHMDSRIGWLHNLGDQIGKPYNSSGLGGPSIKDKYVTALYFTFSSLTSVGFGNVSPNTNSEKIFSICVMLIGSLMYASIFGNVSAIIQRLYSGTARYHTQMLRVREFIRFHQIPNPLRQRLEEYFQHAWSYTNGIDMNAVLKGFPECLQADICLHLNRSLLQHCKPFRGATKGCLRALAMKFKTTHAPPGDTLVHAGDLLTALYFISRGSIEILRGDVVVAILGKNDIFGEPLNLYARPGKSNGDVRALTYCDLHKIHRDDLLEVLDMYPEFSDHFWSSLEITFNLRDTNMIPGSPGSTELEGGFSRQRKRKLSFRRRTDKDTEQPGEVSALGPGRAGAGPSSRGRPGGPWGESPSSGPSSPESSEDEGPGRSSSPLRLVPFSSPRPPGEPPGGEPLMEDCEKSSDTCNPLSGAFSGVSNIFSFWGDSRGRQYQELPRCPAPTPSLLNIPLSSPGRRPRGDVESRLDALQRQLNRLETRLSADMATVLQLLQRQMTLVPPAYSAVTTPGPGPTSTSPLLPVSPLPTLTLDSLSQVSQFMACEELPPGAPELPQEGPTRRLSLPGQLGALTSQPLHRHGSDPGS

Row | SMILES | hERG current change (%, negative = inhibition) at 10uM
1 | Cn1nc(OC(=O)Nc2cccc(Cl)c2)cc1C(F)(F)F | 7.93%
2 | Cc1ccccc1OCCn1cc(C(=S)N2CCCC2)c2ccccc21 | 9.04%
3 | O=C(O)CC1(CC(=O)Nc2ccc(F)cc2F)CCCCC1 | -15.3%
4 | CC(=O)Nc1ccc(S(=O)(=O)n2nc(C)cc2C)cc1 | 20.4%
5 | CSc1nc(NCC(C)O)c2c3c(sc2n1)CN(C)CC3 (stereo not drawn) | -42%
6 | Cc1ccc(Cn2nnc3c(=O)[nH]c(C4CCN(S(=O)(=O)c5ccc(C)cc5)CC4)nc32)cc1 | -26.5%
7 | COc1ccccc1-n1cnnc1SCC(=O)Nc1cccc(S(=O)(=O)N2CCCCC2)c1 | -28.7%
8 | Cc1ccc(N)cc1S(=O)(=O)N(C)C | 20.4%
9 | Cc1nc(C)c(C(=O)OCC(=O)NCc2ccccc2)s1 | 7.46%
10 | Cc1noc(C)c1-c1ccc2ncnc(NC(C)c3ccco3)c2c1 (stereo not drawn) | -8.56%
11 | CC(c1ccncc1)C(C)c1ccncc1 (stereo not drawn) | 9.84%
12 | Cc1cccc(-c2nc(CS(=O)CC(=O)NCCCSC3CCCCC3)c(C)o2)c1 (stereo not drawn) | -29.4%
13 | CCC(C)(C)C1CCC2(CC1)NC(=O)N(CC(=O)N(C)Cc1ccc(OC(F)F)cc1)C2=O (stereo not drawn) | 1.47%
14 | CC(=O)Nc1cccc(C(=O)OCC(=O)NC2CCCCCCC2)c1 | 6.7%
15 | CC(=O)C(C)Oc1cc(C)cc2oc(=O)c(C)c(C)c12 (stereo not drawn) | 3.13%
16 | O=C(c1cc(-c2ccc(O)cc2)on1)N1CCCC1 | 2.56%
17 | Cc1cc(C(=O)COC(=O)c2n[nH]c(=O)c3ccccc23)c(C)n1C | 15.3%
18 | Cc1cc(CNC(=O)CCc2nnc(CCCc3ccccc3)o2)nn1C | 23%
19 | CC(=O)N1CCN(c2ccc(NC(=O)/C=C/c3ccccc3)cc2)CC1 | -32.8%

Row | SMILES | hERG current change (%, negative = inhibition) at 10uM
20 | O=C(CSc1nc2[nH]ncc2c(=O)n1-c1ccccc1)NCCc1ccccc1 | 41.6%
21 | Cc1ccccc1Nc1ncnc2c1cnn2Cc1ccccc1 | -10.8%
22 | CN(C)/C=C1\C(=O)Nc2ccccc21 | 13.3%
23 | O=C(CSc1nnc(-c2ccncc2)n1-c1ccccc1)Nc1ccc(C(=O)O)cc1 | 25.5%
24 | COc1ccc(OC)c(S(=O)(=O)N2CCN(C(=O)NC3CCCCC3)CC2)c1 | -12.6%
25 | Cc1ccccc1S(=O)(=O)Cc1ccc(C(=O)NC2CCCC2)o1 | -6.44%
26 | COc1ccccc1C1C(C(=O)NCc2ccccc2)=C(C)Nc2ncnn21 (stereo not drawn) | 4.42%
27 | CCC1(c2ccccc2)NC(=O)N(CC(=O)Nc2ccc3c(c2)OCO3)C1=O (stereo not drawn) | -6.09%
28 | N#Cc1ccc(NC(=O)COC(=O)C2=COCCO2)cc1 | 4.19%
29 | COc1ccc2cc(C(=O)C3CCCN(Cc4cccc(C)n4)C3)ccc2c1 (stereo not drawn) | -66.5%
30 | O=C(OCC(=O)N1CCc2ccccc2C1)c1cccc([N+](=O)[O-])c1 | -25.5%
31 | O=C(Nc1ccccc1)c1c(O)[nH]c(=O)[nH]c1=O | 8.67%
32 | Cc1ccc(S(=O)(=O)N2CCCCC2)cc1NC(=O)CSc1ncnc2ccccc12 | -36.2%
33 | CC(C)N1CCC(N2CCN(Cc3ccc4nsnc4c3)CC2CCO)CC1 (stereo not drawn) | -8.62%
34 | O=C(CSc1nccn(-c2ccc(Br)cc2)c1=O)NC1CCCC1 | 13.7%
35 | COCCSc1nnc(NS(=O)(=O)Cc2ccccc2)s1 | -10.3%
36 | COC(=O)c1sc(NC(=O)c2ccc(Cn3cc(Cl)cn3)o2)c(C#N)c1C | 14.4%
37 | O=CC(Br)P(=O)(N1CCOCC1)N1CCOCC1 (stereo not drawn) | 3.6%
38 | CC(=O)Nc1ccc(S(=O)(=O)NCCC(=O)N2CCN(C(c3ccccc3)c3ccccc3)CC2)cc1 | -8.45%

Row | SMILES | hERG current change (%, negative = inhibition) at 10uM
39 | O=C(CSCc1c[nH]c(=O)[nH]c1=O)OCC(=O)c1ccc(Br)cc1 | 10.5%
40 | O=C(NCCc1ccccc1)Nc1ccc(Cl)cc1 | 11%
41 | Cc1nc(C)n(C(C)CC(=O)O)n1 (stereo not drawn) | 2.45%
42 | COc1cc(C(O)P(=O)(OCC(C)C)c2ccc(N(C)C)cc2)cc(OC)c1OC (stereo not drawn) | 5.84%
43 | COc1ccc(S(=O)(=O)N2CCN(c3ncccn3)CC2)cc1 | -5.12%
44 | CCN(CC)C(=O)Cn1cc(S(=O)(=O)CC(=O)Nc2ccc(F)cc2)c2ccccc21 | -17.7%
45 | Cc1ccc(S(=O)Cc2ccc(C(=O)N3CCN(C4CCCCC4)CC3)o2)cc1 (stereo not drawn) | -15.9%
46 | CCc1nnc(N/N=C/c2cc(Br)c(O)cc2O)n1N | 17.2%
47 | CCCc1nc2ccccc2c(C(=O)OCC(=O)Nc2cccc(S(=O)(=O)N3CCOCC3)c2)c1CC | 11.3%
48 | O=C(NCc1ccco1)c1ccc(COCC(F)(F)C(F)F)cc1 | -13.6%
49 | O=S(=O)(NCc1nnc2c(C(F)(F)F)cc(Cl)cn12)c1ccccc1 | 0.193%
50 | CCCOc1ccc(C2Nc3cccc4cccc(c34)N2)cc1 | 10.7%
51 | CCOC(=O)c1sc(NC(=O)C2CC(=O)N(c3ccc(OC)cc3)C2)nc1C (stereo not drawn) | -17.2%
52 | Cc1ccc(S(=O)(=O)Nc2cccc(C(=O)NCC(c3ccccc3)N(C)C)c2)cc1F (stereo not drawn) | -45.8%
53 | COc1ccc(S(=O)(=O)NC(C)c2ccccc2)cc1C(=O)N1CCCCC1 (stereo not drawn) | 7.84%
54 | Cc1c(C)c2ccc(OCC(=O)NC(Cc3c[nH]c4ccc(O)cc34)C(=O)O)c(C)c2oc1=O (stereo not drawn) | 4.8%
55 | COc1ccc(OCC(O)CN2C(=O)c3ccccc3C2=O)cc1 (stereo not drawn) | 8.41%
56 | COc1ccc(NC(=O)c2ccco2)cc1NC(=O)c1cccs1 | -20%
57 | CSc1ccccc1NC(=O)Nc1ccc(F)c(Cl)c1 | -3.66%
